Target: T1, full length human NR2 (leptin receptor) with N-terminal FLAG epitope, on the surface of transfected Ba/F3 or … (human, UniProt P48357 26-891)
T1 construct: The Xba I cloning site probably adds Ser-Arg between FLAG and Y26; these two residues are not included here; also called hNR2; haemopoietin receptor
T1 sequence: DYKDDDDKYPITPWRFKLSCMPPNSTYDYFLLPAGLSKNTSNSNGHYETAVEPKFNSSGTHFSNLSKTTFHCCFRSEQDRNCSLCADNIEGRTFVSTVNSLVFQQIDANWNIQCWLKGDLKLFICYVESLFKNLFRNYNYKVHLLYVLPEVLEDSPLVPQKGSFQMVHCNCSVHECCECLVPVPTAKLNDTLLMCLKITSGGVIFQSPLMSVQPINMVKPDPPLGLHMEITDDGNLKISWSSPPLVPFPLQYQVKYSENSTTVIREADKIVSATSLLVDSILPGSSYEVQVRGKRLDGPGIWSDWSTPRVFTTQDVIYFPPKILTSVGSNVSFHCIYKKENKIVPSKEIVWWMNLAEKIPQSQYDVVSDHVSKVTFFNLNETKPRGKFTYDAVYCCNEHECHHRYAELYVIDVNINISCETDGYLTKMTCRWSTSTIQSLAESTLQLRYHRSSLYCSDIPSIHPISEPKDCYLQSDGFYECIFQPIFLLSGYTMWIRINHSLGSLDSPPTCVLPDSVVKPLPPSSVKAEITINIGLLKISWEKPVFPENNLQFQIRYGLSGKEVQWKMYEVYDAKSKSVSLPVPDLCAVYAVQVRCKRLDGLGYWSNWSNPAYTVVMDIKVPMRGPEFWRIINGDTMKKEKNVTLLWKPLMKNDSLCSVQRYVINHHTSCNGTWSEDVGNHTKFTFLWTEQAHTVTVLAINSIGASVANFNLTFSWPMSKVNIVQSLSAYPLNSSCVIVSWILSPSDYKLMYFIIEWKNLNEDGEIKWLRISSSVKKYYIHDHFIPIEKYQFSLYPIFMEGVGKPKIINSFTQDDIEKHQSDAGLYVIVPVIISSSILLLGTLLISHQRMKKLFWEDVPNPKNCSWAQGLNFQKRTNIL
Experiment: Scatchard transformation of saturation binding of 125I human leptin to Ba/F3/hNR2 cells at 23 C
Description: The mixture was incubated for 1-1.5 hr at 23° C. and then layered over 200 μl cold foetal calf serum in small, tapered centrifuge tubes (Elkay, Melbourne) and centrifuged at 12000 g for 10 sec. The cell pellet was removed by cutting the tubes with a scalpel blade and the cell bound (pellet) radioactivity and the unbound radioactivity (the rest of the tube) were separately counted in a Packard γ-counter. […] The data were plotted as saturation curves (specifically bound versus added ¹²⁵I h leptin) and as Scatchard transformations (specific bound/free radioactivity versus specific bound radioactivity to determine the equilibrium dissociation constants [Kds] (20).

B1: human leptin, N-terminal FLAG epitope, monomeric form, iodinated with 125I (ligand)
chain: not shown
modifications: iodinated with 125I (modified iodine monochloride method); residues not stated
notes: Made in CHO cells, purified on anti-FLAG M2 and by gel filtration (monomeric form)
**Q.** With B1 as the binder, how does the Kd read?
**A.** 0.12 nM

Reference: patent publication US20050004015A1 (AMRAD OPERATIONS, published 2005)
